According to patent publication US6348581:

Target: tumor-associated glycoprotein TAG-72 (human)
Assay: Scatchard analysis, solid-phase assay on TAG-72-coated plates with 125I-labeled goat anti-human IgG probe; mean of 8 analyses

B1: humanized CC49 antibody CC49 HuVH/HuVK (antibody, human IgG1, V domains shown)
VH: [sequence of about 120 residues not given]
VL: DIQMTQSPSSLSASVGDRVTITCKSSQSLLYSGNQKNYLAWYQQTPGKAPKLLIYWASARESGVPSRFSGSGSGTDYTFTISSLQPEDIATYYCQQYYSYPLTFGQGTKLQIT
Ka: 4.27e+09 M⁻¹
